Source: PMC6919601, “Identification of Plasmodium dipeptidyl aminopeptidase allosteric inhibitors by high throughput screening” (PLoS ONE, 2019)
In all, about 110,000 compounds went through this assay and about 230 (0.21%) showed an effect of 50% or more. This is one part of the list.

Each compound was assayed against DPAP1 (Plasmodium falciparum, UniProt Q8IIJ9) (assay: primary screen, percent inhibition; read by cleavage of a fluorogenic dipeptide substrate; higher = more effect of the substance).
Chain of DPAP1 (Q8IIJ9 whole entry, looked up): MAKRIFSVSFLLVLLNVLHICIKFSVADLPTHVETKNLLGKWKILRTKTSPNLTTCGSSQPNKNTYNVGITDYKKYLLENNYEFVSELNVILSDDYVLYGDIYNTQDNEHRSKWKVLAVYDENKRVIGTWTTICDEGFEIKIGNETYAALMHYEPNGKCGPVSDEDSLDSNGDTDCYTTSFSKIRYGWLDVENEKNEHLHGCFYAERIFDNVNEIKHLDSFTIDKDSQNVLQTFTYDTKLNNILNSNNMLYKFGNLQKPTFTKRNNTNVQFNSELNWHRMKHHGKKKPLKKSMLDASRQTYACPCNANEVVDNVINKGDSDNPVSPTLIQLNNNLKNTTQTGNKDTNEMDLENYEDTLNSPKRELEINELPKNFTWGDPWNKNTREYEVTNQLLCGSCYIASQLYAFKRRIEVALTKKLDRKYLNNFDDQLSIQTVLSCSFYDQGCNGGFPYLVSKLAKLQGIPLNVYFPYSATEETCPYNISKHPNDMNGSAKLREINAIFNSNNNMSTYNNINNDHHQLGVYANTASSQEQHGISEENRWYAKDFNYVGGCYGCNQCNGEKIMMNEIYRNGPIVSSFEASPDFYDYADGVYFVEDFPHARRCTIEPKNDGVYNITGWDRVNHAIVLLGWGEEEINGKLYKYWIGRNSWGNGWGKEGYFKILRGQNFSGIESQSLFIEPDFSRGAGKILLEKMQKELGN
Design: species or system P. falciparum D10 trophozoite lysates; single well
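Also: 30 min substrate incubation versus DMSO and 10 µM JCP410 controls.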

SMILES	% Inhibition @ 10 uM
Nc1nc(-c2cccnc2)nc2c1nnn2Cc1ccccc1Cl	-8.53%
COc1ccc(NC(=O)COc2ccc(C(C)C)cc2)cc1Cl	-17%
O=C(O)c1nsc(Cl)c1Cl	-0.85%
COc1ccc2oc(C(=O)c3ccccc3)c(NC(C)=O)c2c1	-3.77%
COc1cc(NC(=O)COc2ccccc2)ccc1Cl	0.35%
CN(CCc1ccccc1)Cc1cccnc1	-4.75%
CCOc1ccc2nc(C)c(C/C=C(/C)Cl)c(O)c2c1	-3.09%
C(=C\c1ccccc1)/CN1CCN(Cc2ccsc2)CC1	-0.261%
Cc1ccc(NC(=O)Nc2cccc(C(=O)O)c2)cc1	-1.61%
COCCn1c(C)cc(C(=O)C(=O)Nc2nnc(-c3ccccc3)s2)c1C	0.655%
COc1cc(/C=C2\S/C(=N/c3ccc(F)cc3)N(C)C2=O)ccc1OC(C)C(=O)O (stereo not shown)	1.28%
NC(=O)NC(=O)Nc1cccc2ccccc12	-3.93%
O=S1(=O)CCC(N2CCCCC2)C1 (stereo not shown)	0.0345%
CCOC(=O)C1=C(C)N=c2s/c(=C\c3ccc(C)cc3)c(=O)n2C1c1ccc(OC)cc1 (stereo not shown)	-6.88%
O=C(O)CNC(=O)c1ccco1	-3.93%
CC1(C)CC(=O)c2sc(NC(=O)Cc3ccc(Br)cc3)nc2C1	-2.98%
CCc1ccccc1NS(=O)(=O)c1ccc(NC(C)=O)cc1	-4.94%
C=C(C)Cn1c(SCC(=O)Nc2ccccc2)nc2c1c(=O)[nH]c(=O)n2C	2.01%
COc1ccc(CCN2C(=O)C3C4C=CC(C5CC45)C3C2=O)cc1OC (stereo not shown)	-3.52%
O=C(NCCCn1ccnc1)c1cc(-c2ccc(O)cc2)on1	6.87%
CCc1ccc2ncc(S(=O)(=O)c3ccccc3)c(N3CCC(C(N)=O)CC3)c2c1	-0.246%
Cc1ccc(-n2nc3c(=O)n(CCCC(=O)N4CCN(c5ccccn5)CC4)nc(C)c3c2C)cc1	-6.73%
CC(c1ccccc1)C1CC(=O)N(c2ccc(Cl)cc2)C1=O (stereo not shown)	0.392%
CC1Cc2nc(SCC(=O)NCc3ccco3)n(CCc3ccccc3)c(=O)c2S1 (stereo not shown)	0.8%
Cc1ccc(S(=O)(=O)n2nc(C)c(Sc3ccccc3)c2C)cc1	-2.55%
CC1(C)NC(=O)C(C#N)=C(SCc2ccccc2)S1	1.72%

SMILES	% Inhibition @ 10 uM
Cc1ccc(NC(=O)c2cc3c(Cl)nc4ccccc4c3s2)nc1	4.68%
O=C(CSCc1ccc(Cl)cc1)Nc1ccccc1C(=O)O	4.67%
Oc1ncnc2sc3c(c12)CCCCC3	-0.693%
COc1ccc(OC)c(/C=C2/N=C(c3ccc(OC)c(Br)c3)OC2=O)c1	-2.9%
O=C(Nc1cc(C(F)(F)F)ccc1Cl)c1ccc(C(=O)Nc2cc(C(F)(F)F)ccc2Cl)cc1	5.43%
Cc1ccc(C(C)C)c(OCC(O)CN2CC(C)OC(C)C2)c1 (stereo not shown)	-1.15%
CC(=O)c1cc(C(c2csc(C(C)=O)c2)c2csc(C(C)=O)c2)cs1	-3.95%
COCCNCc1c(C(=O)O)n(Cc2ccccc2Cl)c2ccccc12	-8.92%
CCCC(=O)Nc1ccc(S(=O)(=O)NC2CCCCC2)cc1	-8.28%
CCOc1ccccc1N1CCN(Cc2cccc(Cl)c2)CC1	-0.261%
CCOc1ccc(C(=O)C[n+]2ccc(C(=O)NCc3ccccc3)cc2)cc1	5.98%
CCCCN(C)CCNC(=O)c1cnc2ccc(S(=O)(=O)N(CC)CC)cc2c1O	-7.85%
CN(C)CCN(Cc1ccccc1)Cc1coc2ccccc2c1=O	-1.5%
O/N=C(\Cc1ccccn1)c1ccccc1	-6.11%
Cc1cc(O)c2c(C)c(CC(=O)NCc3ccc(Cl)cc3)c(=O)oc2c1	0.895%
O=C(c1c[nH]c2ccccc12)C1CCCCC1	-5%
CCN1CCN(CC(O)COc2cc(C)ccc2C(C)C)CC1 (stereo not shown)	-0.46%
CCCn1c2ccccc2c2cnn(CC(=O)Nc3ccsc3C(=O)OC)c(=O)c21	-0.238%
CC(C(=O)N1CCC2(CC1)OCCO2)N1Cc2ccccc2C1=O (stereo not shown)	2.37%
CCOc1ccc(CC(=O)N2N=C(C(F)F)CC2(O)C(F)F)cc1OCC (stereo not shown)	-4.72%
CCN(CC)Cc1c(O)ccc2occ(C(=O)c3cccs3)c12	5.2%
COC(=O)C1=C(C)N(CCC2=CCCCC2)C(=O)/C1=C\c1ccc(C(=O)O)cc1	-1.52%
O=C(Nc1ccn(Cc2cccc3ccccc23)n1)c1ccc2c(c1)OCO2	-0.222%
Cc1ccc(S(=O)(=O)N2CCN(c3ccccc3C)CC2)cc1	-0.0619%
CCc1ccc(N(CC(=O)N(C)C)S(C)(=O)=O)cc1	-2.46%
COc1ccc(/C=C2/Sc3ccccc3C2=O)cc1[N+](=O)[O-]	-2.64%
